Out of some 150,000 compounds screened, about 540 (0.36%) showed an effect of 50% or more. The list shows a part of the results.
test system: Plasmodium falciparum; assay: Primary screen in NF54 nanoGlo assay, in single point, at 2uM, 72h; a lower Z score goes with more inhibition; type: functional, Erythrocyte; details: timepoint 72 hour

| SMILES | % Inhibition [%] | Z score |
| --- | --- | --- |
| O=C(C1CCC1)N(Cc1ccc(F)cc1)C[C@H]1CC(c2ccccc2)=NO1 | 5 | -0.41 |
| CC1(CNC(=O)C2CC=CC2)CCN(C(=O)OC(C)(C)C)CC1 | -9 | 1.13 |
| CC1(C)CCN(C(=O)C2=CCCCO2)C1 | -18 | 1.9 |
| CCNc1cc(Br)ccc1N | 0 | -0.07 |
| Cc1nc(NC(=O)NC(C)C)sc1C | -4 | 0.69 |
| O=S(=O)(c1ccc(Cl)cc1)n1cc2c(n1)NCCC2 |  | 0.11 |
| O=C(Nc1ccnn1Cc1ccc(Cl)cc1)C1CCN(S(=O)(=O)c2ccc(F)c(F)c2)CC1 | -7 | 0.76 |
| CC(C)Oc1ccc(CNS(=O)(=O)c2ccc3c(c2)OC[C@@H](C(=O)N2CCCCC2)O3)cc1 | -23 | 3.89 |
| CCOC(=O)c1nnsc1N1CCCC1 | 10 | -1.22 |
| O=C1N(Cc2ccc(F)cn2)C(=O)C23CC(CN12)C3 | 3 | -0.43 |
| CN(C)S(=O)(=O)c1ccc2c(c1)nnn2CCCC(=O)NC1CCCCCCC1 | -15 | 2.18 |
| CCC(C)(C)c1ccc(C(=O)N(C)c2nncn2C)cc1 | -4 | 0.53 |
| CCN1CCC[C@H](CN2CCc3[nH]nc(C(C)C)c3C2)C1 | -7 | 1.14 |
| O=S1(=O)CCN(c2ccc3cc[nH]c3n2)CC1 | -4 | 0.72 |
| COCC(=O)N1CCC[C@@]2(CCN(Cc3cccc(C(=O)OC)n3)C2)C1 | -1 | 0.07 |
| Cc1cccc(C(=O)N2CCN3C(=O)CC[C@H]3C2)c1O | -12 | 1.9 |
| Oc1ccc(-c2nccn2C[C@H](O)COC2CCCCC2)cc1 | 5 | -0.77 |
| CN(C(=O)CCC1CCCO1)C1CCS(=O)(=O)C1 (centres undefined) | -4 | 0.74 |
| CCO/C(=N/C(=O)c1ccc(C(F)(F)F)cc1)NCCN1CCCCC1 | -5 | 0.84 |
| CCc1ccc(CN2CC[C@H](S(=O)(=O)N3CCCC3)C2)o1 | -6 | 0.81 |
| Cc1ccc(-c2ccc(CN3C[C@@H](CN4CCCC4)[C@@H](CO)C3)o2)cc1 | -15 | 2.63 |
| CC[C@H](NCc1ccc(OC(F)F)c(F)c1)c1ncc(C)s1 | 1 | -0.06 |
| Cc1nc(Cn2cc(-c3cnn(-c4ccc(C)c(C)c4)c3)nn2)no1 | -28 | 3.63 |
| COc1ccc(-c2cc3nc(C)cc(N4CCN(C/C=C/c5ccccc5)CC4)n3n2)cc1OC | 51 | -9.31 |
| CCC[C@H](NC(=O)c1cccc(-n2cccn2)n1)c1nnn[nH]1 | 17 | -1.97 |
| O=S(=O)(C1CC1)N1CC[C@H](Oc2cc(N3CCOCC3)ncn2)C1 | 0 | 0.03 |
| Cc1cc(Cl)ccc1OCC(=O)NO | 0 | -0.04 |
| Cc1ncncc1C(=O)N1CC[C@H](O)CC(C)(C)C1 | -7 | 0.64 |

| SMILES | % Inhibition [%] | Z score |
| --- | --- | --- |
| CCN(C(=O)c1ccnc(C)n1)C1CCCCC1C (centres undefined) | -4 | 0.4 |
| COC(=O)c1cc(CNc2nc3ccccc3o2)c[nH]1 | -5 | 0.71 |
| COC1(CNC(=O)c2noc(C)n2)CCCCCC1 | -1 | 0.16 |
| O=C1OC2(CCN(C(=O)c3c(F)cccc3Cl)CC2)c2ccccc21 | -6 | 1.16 |
| CCN(C(=O)c1ncc(Br)s1)C1CCCC1 | 7 | -0.58 |
| Cc1nc(NCc2ccc(N3CCC[C@H](C)C3)cc2)c2c(C)noc2n1 | -5 | 0.7 |
| C[C@H](NC(=O)NCc1cccnc1N1CCOCC1)c1cc2ccccc2o1 | -11 | 1.05 |
| COCCN(C(=O)c1ccc(C)c(OC)c1)[C@@H](C)C(N)=O | -5 | 0.89 |
| COc1ccc(-c2nc(-c3ccc(OC)cc3)c(C)c(C#Cc3ccccc3)c2C)cc1 | -6 | 0.78 |
| CC(C)c1nnc(C2CCN(C(=O)C3c4ccccc4Oc4ccccc43)CC2)o1 | 7 | -0.88 |
| CCCCn1ncc(C)c1NC(=O)CC1CC(C)(C)NC(C)(C)C1 | -3 | 0.37 |
| CC(O)C(=O)N1CCC(C2N(C(=O)OC(C)(C)C)CC2(C)C)CC1 (centres undefined) | -7 | 0.84 |
| Cc1cc2c3c([nH]c2cc1S(=O)(=O)N(C)C1CCCCC1)CC(C)(C)CC3=O | -12 | 2.36 |
| O=C(CCCc1c[nH]c2ccccc12)N1CCC[C@H](c2nnc3ccccn23)C1 | -12 | 1.96 |
| CN1c2cccnc2CN(Cc2ccccn2)CC[C@H]1CO | 34 | -3.81 |
| Cc1nnc(NC(=O)Cc2sc(C)nc2C)s1 | -3 | 0.43 |
| CC1CC1C(=O)NCC(C)(NC(=O)C1CC1C)C(C)C (centres undefined) | 33 | -3.76 |
| CCCCN(C)C(=O)c1cn2nc(OCC)ccc2n1 | -27 | 4 |
| Cc1ccc(Br)cc1C(=O)Nc1nc2c(s1)C[C@@H](N)CC2 | 3 | -0.55 |
| Cc1ccc(C)c(NC(=O)c2nc3c(=O)n(Cc4ccccc4)c4cc(C)ccc4n3n2)c1 | -6 | 0.63 |
| COc1cccc(CNc2nc(NCc3cccc(OC)c3)n(S(=O)(=O)c3ccccc3)n2)c1 | -11 | 1.62 |
| O=S(=O)(c1ccccc1)n1c(CNC[C@H](O)C2CC2)cc2cccnc21 | 4 | -0.59 |
| O=C(c1ccc2c(c1)CCC=C2)N1CC[C@@](F)(C(=O)O)C1 | -4 | 0.55 |
| Cc1occc1S(=O)(=O)Cc1ncnn1CC(C)C | -6 | 0.92 |
| CN=C(NCc1noc(C)n1)N[C@@H](C)c1ccc(OCC(C)C)cc1 | 3 | -0.38 |
| Cc1ccc2c(c1C)OCC2NC(=O)N1CC2CCCC(C1)C2O (centres undefined) | 5 | -0.57 |
| CCCc1c(C(=O)N2CCN(c3nc4nccc(-c5cc(Cl)ccc5Cl)n4n3)CC2)cnn1-c1ccccc1 | 1 | -0.07 |
